PubChem BioAssay AID686979 (National Center for Advancing Translational Sciences (NCATS), 2013)
Where “and” joins values, the source holds several entries; their conditions need not be identical. Equal entries are not always repeated. About 50,000 (12%) of roughly 420,000 compounds were called active. Inconclusive results, whose numbers are uncertain, are shown with a selection of clear calls. The call rests on the fitted dose curve; in most records, active means well fitted inhibition curve with a large enough effect; inconclusive means small, poorly fitted or top-dose-only effect; inactive means flat fitted curve, though single readings scatter. Potencies of inconclusive entries are doubtful fits and often do not repeat.

Test: qHTS for Inhibitors of human tyrosyl-DNA phosphodiesterase 1 (TDP1): qHTS in cells in presence of CPT; further: nearly all actives have a fitted effect of over 55% in size
Conditions: chicken DT40 Tdp1-/-;hTDP1 cells + 20 nM CPT, ATP luminescence, 48 h; activity change, negative = growth inhibition: at 46.2 µM (top of the series)
How it was run: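 Chicken DT40 Tdp1-/- cells stably complemented with human TDP1 were seeded at 400 cells/well in medium containing 20 nM camptothecin, exposed to pin-transferred compounds, and grown at 37 °C for at least 48 hr. Viability was read as ATP luminescence.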
On the % scale 0 is the no-effect control and ±100 the full control effect; potency means the concentration at half of the fitted maximal effect; tags describe the fitted curve by direction and shape.

Structure (SMILES) | Potency | activity change, negative = growth inhibition
C/C(=N\Nc1nc2ccccc2[nH]1)c1ccc(Cl)s1 | inconclusive: 29.1 µM [inhibitor, single point] | 
CC(C)C(c1nnnn1C1CCCCC1)N1CCN(c2ncccn2)CC1 (centres undefined) | inconclusive: 18.4 µM [inhibitor, single point] | 
CCOC(=O)CCCCCC(=O)Nc1ccc2c(c1)CC(=O)N([C@H](C)CO)C[C@H](C)[C@H](CN(C)S(=O)(=O)c1ccc(OC)cc1)O2 | inconclusive: 32.6 µM [inhibitor, single point] | 
CCCN(C(=O)COC(=O)c1[nH]c(C)c(C(=O)OC)c1C)c1c(N)n(Cc2ccccc2)c(=O)[nH]c1=O | inconclusive: 32.6 µM [inhibitor, partial curve, poor fit] | 
CC1CCN(S(=O)(=O)c2cc(C(=O)NCc3ccc(N(C)C)cc3)n(C)c2)CC1 | inconclusive: 25.9 µM [inhibitor, single point] | 
COc1cc2ncnc(NCc3cccs3)c2cc1OC | inconclusive: 16.4 µM [inhibitor, partial curve] | 
O=C(COC(=O)c1ccc(F)c(S(=O)(=O)N2CCOCC2)c1)NCc1ccc2c(c1)OCO2 | inactive | 
C=CCOC(=O)C1=C[C@H](c2ccc(Br)cc2)[C@@H](CCCO)[C@H](OCC)O1 | inconclusive: 7.31 µM [inhibitor, single point] | 
COc1ccc(C(C)C)cc1S(=O)(=O)n1ccnc1C | inactive | 
CC(=O)NCCC1CCN(C(=O)c2cc(COc3ccc(C)nc3)on2)CC1 | inconclusive: 16.4 µM [inhibitor, single point] | 
CCCc1cc2c(=O)c(-c3cscn3)c(C(=O)OCC)oc2cc1O | inactive | 
COCCCNC(=O)CCCN1C(=O)CCn2nc(-c3cccn3C)cc21 | inactive | 
O=C(Nc1ccccc1)C1=C[C@@H](c2ccc(Br)cc2)C[C@@H](OCCCCO)O1 | inconclusive: 29.1 µM [inhibitor, single point] | 
Cc1ccc(S(=O)(=O)NC(=O)COc2ccc([N+](=O)[O-])cc2)cc1 | inactive | 
Cc1csc2nc(-c3cccc(NS(C)(=O)=O)c3)cn12 | inactive | 
CCOc1ccc(NC(=O)Cn2c(=O)cc(C)c3c(C)nn(C)c32)cc1 | active: 20.6 µM | 
O=C1c2ccccc2C(=O)N1CCCCSc1nc2ccccc2c(=O)n1CCCN1CCOCC1 | inconclusive: 29.1 µM [inhibitor, single point] | 
COc1ccc(Nc2c(-c3cccc(OC)c3)nc3nc(C)cc(C)n23)cc1 | inconclusive: 23.1 µM [inhibitor, single point] | 
O=C(Nc1ccccc1)c1ccc(CSc2ccccn2)cc1 | inconclusive: 20.6 µM [inhibitor, single point] | 
CCc1ccccc1NC(=O)Cn1c(=O)n(Cc2ccccc2)c(=O)c2c(C)c(C(=O)N(C)C)sc21 | inconclusive: 29.1 µM [inhibitor, single point] | 
Cc1ccc(C)c(N(CC(=O)NC(C)(C)C)C(=O)CNC(=O)c2cccs2)c1 | inactive | 
COc1ccc2ccccc2c1CN1CCc2nnc(CNC(=O)c3cccc(F)c3)n2CC1 | inactive | 
Cc1csc2nc(-c3ccc(NS(=O)(=O)c4cccc(F)c4)cc3)cn12 | inconclusive: 29.1 µM [inhibitor, single point] | 

Structure (SMILES) | Potency | activity change, negative = growth inhibition
Cc1ccc(C(=O)NC2CCN(CC(=O)Nc3ccccc3Cl)CC2)cc1 | inactive | 
COc1ccccc1-c1noc2c1C(=O)N(Cc1cn(-c3ccccc3OC)nn1)CC2 | inconclusive: 29.1 µM [inhibitor, single point] | 
Cn1c(SCC(=O)NC2CCCCC2)nnc1-c1cc2cc(Cl)ccc2o1 | inconclusive: 25.9 µM [inhibitor, partial curve, poor fit] | 
O=C(Nc1ccc(F)cc1)c1cn(-c2ccccc2)nc1-c1ccncc1 | inconclusive: 11.6 µM [inhibitor, partial curve] | 
CCOC(=O)c1c(NC(=O)C2CC(Cl)=CCC2C(=O)O)sc2c1CCCCC2 (centres undefined) | inactive | 
COc1ccc(NC(=O)C2OC3OC(C)(C)OC3C3OC(C)(C)OC23)cc1 (centres undefined) | inactive | 
Cc1cc(C(=O)CN2C(=O)c3ccccc3S2(=O)=O)c(C)n1-c1ccccc1 | active: 20.6 µM | 
O=C(NCCCO)C(=O)Nc1cc2c3c(c1)CCN3C(=O)CC2 | inactive | 
Cc1ccc(-c2n[nH]c3c2C(c2ccccc2Cl)N(c2ccc(C(=O)O)cc2)C3=O)cc1 (centres undefined) | inactive | 
CCCOc1ccc(C2=NC(c3ccncc3)=Nc3ccc(C)cc3N2)cc1 | inconclusive: 16.4 µM [inhibitor, single point] | 
Cc1cccc(Nc2ccc(S(=O)(=O)N3CCOCC3)cc2[N+](=O)[O-])c1 | inconclusive: 9.2 µM [inhibitor, partial curve] | 
COc1ccc(-n2c(C)cc(/C=C(\C#N)C(=O)NCc3ccco3)c2C)cc1 | inactive | 
COc1ccc(C(=O)N/N=C(/C)c2cccc(NC(=O)c3ccncc3)c2)cc1OC | inconclusive: 18.4 µM [inhibitor, single point] | 
Cc1ccc(NC(=O)N(CCCN2CCOCC2)Cc2cccs2)cc1C | inconclusive: 29.1 µM [inhibitor, single point] | 
Cc1nc2c(C(=O)N3CCOCC3)cnn2c(C)c1Cc1ccc(Cl)cc1 | inconclusive: 18.4 µM [inhibitor, single point] | 
Cc1c(CN(C)C(=O)c2cc(-c3ccccc3)nc3ccc(Br)cc23)cnn1C | active: 20.6 µM | 
Cc1ccccc1CNC(=O)c1ccc(NC(=O)N2CCCCc3ccccc32)cc1 | inconclusive: 6.51 µM [inhibitor, single point] | 
COc1cc(CNCCSc2nnnn2C)ccc1OCc1ccccc1C | active: 16.4 µM | 
O=C(Cn1cc(C(F)(F)F)cc(Cl)c1=O)Nc1cccc(S(=O)(=O)N2CCCCC2)c1 | inconclusive: 29.1 µM [inhibitor, single point] | 
Cc1cc(NC(=S)Nc2cccnc2)ccc1Br |  | inconclusive: -31.4% [inhibitor]
Cc1ccccc1-c1noc(-c2ccc(N3CCC(C)CC3)c([N+](=O)[O-])c2)n1 | inactive | 
COc1cccc(-c2cc(NCc3cccc(C)c3)ncn2)c1 | inconclusive: 25.9 µM [inhibitor, single point] | 
Cn1cnnc1SCc1ccccc1[N+](=O)[O-] | inactive | 

Structure (SMILES) | Potency | activity change, negative = growth inhibition
Cc1ccc(S(=O)(=O)c2c(Nc3ccc(C)c(C)c3)sc(C(=O)c3ccc4c(c3)OCO4)c2N)cc1 | inconclusive: 20.6 µM [inhibitor, partial curve] | 
CCOc1ccc(S(=O)(=O)N2CCC(C(=O)Nc3ccc(C)c(S(=O)(=O)N4CCOCC4)c3)CC2)cc1 | inconclusive: 29.1 µM [inhibitor, single point] | 
CN(C)CCN(C(=O)C1=COCCO1)c1nc2ccc(Cl)cc2s1 | inconclusive: 23.1 µM [inhibitor, single point] | 
COc1cccc(NC(=O)CCNS(=O)(=O)c2cccc3nonc23)c1 | inactive | 
COc1cc(C(=O)Nc2ccc(Br)cc2C(=O)c2cc(OC)c(OC)c(OC)c2)cc(OC)c1OC | active: 13 µM | 
Cc1ccc2c(c1)=N/C(=N\c1[nH]c(O)c3ccccc13)N=2 | active: 4.11 µM | 
CN1C(=O)[C@H]2[C@@H](c3ccc(C(F)(F)F)cc3)N[C@]3(CCCN(Cc4ccc(F)cc4)C3=O)[C@H]2C1=O | active: 9.2 µM | 
c1nc(NC2CCCC2)c2[nH]cnc2n1 | inconclusive: 35.5 µM [inhibitor, single point] and inconclusive: 29.1 µM [inhibitor, single point] | 
CCCc1nc2c(C)cc(Br)cn2c1Cc1ccc(C)cc1 | inconclusive: 29.1 µM [inhibitor, single point] | 
COc1ccc2c(c1)-c1ccccc1S(=O)(=O)N2C |  | inconclusive: -42.9% [inhibitor]
CC(=O)ON1C(C)(C)CC(OC(=O)c2ccccc2)CC1(C)C | active: 20.6 µM | 
Cc1ccc(NC(=O)CSc2nc3c(cc2C#N)C(=O)CCC3)cc1S(=O)(=O)N(C)C | inconclusive: 4.61 µM [inhibitor, full curve, poor fit] | 
CCNC(=O)C1(C)CCCN(Cc2ccc3ccccc3c2Br)C1 (centres undefined) | inconclusive: 18.4 µM [inhibitor, single point] | 
CCN(c1ccc(NC(=O)CN2C(=O)NC3(CCOc4ccccc43)C2=O)cc1)C(C)C (centres undefined) | inconclusive: 29.1 µM [inhibitor, single point] | 
CC(C)(C)NC(=O)CCN(/N=C/c1ccc([N+](=O)[O-])o1)C1=NS(=O)(=O)c2ccccc21 | active: 18.4 µM | 
CC(=O)N1CCN(c2ccccc2NC(=O)c2ccc(Br)o2)CC1 | inconclusive: 23.1 µM [inhibitor, single point] | 
O=C(Nc1ccccc1)N1CCC2(CC1)CCN(C(=O)c1cnccn1)CC2 | inactive | 
O=[N+]([O-])c1cccc(/C=N/Nc2nc(NCc3ccccc3)nc(N3CCOCC3)n2)c1 | active: 14.6 µM | 
O=C(Nc1c(C(=O)c2ccccc2)oc2ccccc12)c1ccc(F)cc1 | inconclusive: 14.6 µM [inhibitor, single point] | 
CC(=O)c1cc2c(cc1NC(=O)CN1Cc3ccccc3C1=O)OCO2 | inactive | 
CC(C)C[C@H](NC(=O)c1nc[nH]c1C(=O)NC1CCNCC1)C(=O)OCc1ccccc1 | inactive | 
CCC(=O)Nc1ccc(-c2nc3ccccc3c(=O)o2)cc1 | inactive | 
COc1cc(/C(C)=N/NC(=O)C(O)(c2ccccc2)c2ccccc2)ccc1O | inconclusive: 29.1 µM [inhibitor, partial curve, poor fit] | 
